Results taken from paper PMC7948418, “Genetic and biased agonist-mediated reductions in β-arrestin recruitment prolong cAMP signaling at glucagon family receptors” (The Journal of Biological Chemistry, 2020).

Target: T1, human GIPR of PathHunter β-arrestin-2 CHO-K1 cells (human) (UniProt P48546)
T1 sequence: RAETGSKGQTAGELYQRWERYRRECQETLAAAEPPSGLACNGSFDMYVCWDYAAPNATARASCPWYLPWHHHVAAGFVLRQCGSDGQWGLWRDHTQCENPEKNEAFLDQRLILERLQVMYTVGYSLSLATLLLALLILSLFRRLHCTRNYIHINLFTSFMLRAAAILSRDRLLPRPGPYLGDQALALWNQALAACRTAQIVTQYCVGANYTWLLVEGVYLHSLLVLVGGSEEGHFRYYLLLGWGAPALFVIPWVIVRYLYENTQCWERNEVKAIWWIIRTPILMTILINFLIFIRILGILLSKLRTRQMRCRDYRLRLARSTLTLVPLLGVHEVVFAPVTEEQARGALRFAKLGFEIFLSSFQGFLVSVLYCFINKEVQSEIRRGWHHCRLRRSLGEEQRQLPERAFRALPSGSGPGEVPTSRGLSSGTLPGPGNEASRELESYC

B1: GIP-dGln3 (peptide)
peptide: YA[dQ]GTFISDYSIAMDKIHQQDFVNWLLAQKGKKNDWKHNITQ
  cAMP (HTRF), 30 min, PathHunter CHO-GIPR cells: fold reduction of potency against GIP: 100 fold

Square brackets hold non-standard residues; d marks the D form. Ends that are not written are not given here.
